Where a chain is given by its changes, count along the chain named. The list shows a part of the results. Binding of human antibodies (heavy:light variable regions, tested as scFv in one mRNA-display pool) to influenza hemagglutinin, with or without the stem antibody CR9114 bound first. Score = (mean enrichment − median) / interquartile range of that screen; higher = more enriched, 0 = typical non-binder. Active = above the paper's cut-off per screen: stems 28; unblocked H1 Solomon Islands 5, H1 Michigan 3, H3 5, H5 19, H7 2.85, both B 5; blocked 9, 7, H5 10, H7 10, B Phuket 10, B Lee 11.5. Scores are scaled within each screen and are no affinities; replicates correlate at about 0.6 to 0.9, and antibodies rare in the pool are noisier.
B1: K77-1G04 (protein)
chain 1: QVHLVQSGAEVKNPGASVKVSCKASGYTFTEYYMHWVRQSPGQGLEWMGWINPKTGGTNYAQKFQGWVTMTRDTSIKTVYMELSRLRCDDTAVYYCARDDGYTTGADVWGRGTTVTVSS
chain 2: SYELTQPPSVSVSPGQTARITCSGDALPKQYAYWYQQKPGQAPVMVIYKDSERPSGIPERFSGSSSGTTVTLTISGVQAEDEADYYCQSADSGGTYQLFGGGTKLT
B2: 56.b.16 (protein)
chain 1: EVQLVESGGGLVQPGGSLRLSCSASGFNVSDYAMHWVRQAPGKGLEYVSLISSNGFSTFYTDSVKGRFIISRDNSKNTLYLQMSSLRHDDTAVYYCVRAESHDFWSGYYWGHGTLVTVSS
chain 2: DVVMTPGSVSLPVTLGQPASISCRSSQSLVYSDGNTYLSWFQQRPGQSPRRLIYKVSNRDSGVPDRFSGSGSGTDFTLKIRGMEAEDVGVYYCLQTTHWPPTFGQGTKVEIK
B3: K77-2F01 (protein)
chain 1: QVQLQESGPGLVKPSGTLSLTCAVSGGSISSSHWWSWVRQPPGKGLEWIGEIHHSGTSNHNPSVESRVNISVDKSKNHFSLELTSVTAADTAVYFCARVSTVAGHRSSYCLDSWGQGTLVAVSS
chain 2: QSALTQPASVSGSPGQSITISCTGTSSDVGGYDYVSWYQQHPGKAPKVIIYDVSYRPSGVSNRFSGSKSGNMASLTISGLQAEDEADYYCSSYTTTFTLLFGGGTKVT
B4: R95-1E01 (protein)
chain 1: EVQLVESGGGLVQPGRSLRLSCAGDGFSFDDHAMHWVRQAPGKGLEWVSGISWNSGSIGYVDSVKGRFTISRDNAKNSLYLQMNTLRPEDTALYYCVRDMNWNSQIGGYYFDYWGQGALVTVSS
chain 2: DIQMTQSPSSLSASVGDRVTITCRASHNITNFLNWYQQKPGKAPKLLIYGTSSLQSGVPSRFSGSGSGTDFTLAISSLHPEDFATYYCQQSYSIHPYTFGQGTKLDIK
B5: 56.f.01 (protein)
chain 1: QVHLVQSGAEVKKPGASVKVSCKVSGHTLSELSIHWVRQAPGNVLEWMGGFDPEDGESISAQMFQGRVIMTEDSSKDTAYMELSSLTSEDTAVYYCATGSYCSATYCSFDYWGQGTLVTVSS
chain 2: AIRMTQSPVSLSASVGDRVTITCWASQGISNYLVWIQQKPAKAPRLFIYYASSLQSGVPSRFSGSGSGTDYTLTIISLQPEDFATYYCQQFYGSLPLTFGGGTKVEIK
B6: K77-2A04 (protein)
chain 1: QVHLQESGPGLVKPSGTLSLTCDVSGVSIRSPNWWSWVRQSPGKGLEWIGEIYHSADTNYNPSLKSRVTISLDKSKNQFSLKLISVTAADTAVYYCGRDRYDSSGFYRGYYYGIDVWGQGTTVTVS
chain 2: DVVMTQSPLSLPVTLGQAASISCRSGQSLVHTDGNTYLNWFQQRPGQSPRRLIYQVSNRDSGVPDRFSGSGSGTDFTLKISRVEAEDVAVYYCMQGTHWPPTFGQGTKVEVK
B7: 039-10-4B05 (protein)
chain 1: QVQLVQSGAEVKKPGASVKVSCETSGYMFTAYATHWVRQAPGQGLEWMGWVNGLNGNTKYSEKFQGRITITRDTSATTAYMELSSLRSDDTAVYYCARGNIANWFDPWGQGTLVTVSS
chain 2: DIQMTQSPSSLSASVGDRVTITCRASQDIRKSLAWYQQKPGKAPKVLVFATSRLEDGVPSRFSGSGSGTEYTLTISSLQPEDFATYHCQQYQSTPYTFGQGTKVEIK
B8: AG12-C06 (protein)
chain 1: VQLQESGPGMVRPSQTLSLFCTVSGDSIGSGTDYWNWVRQPPGKGLEWVGDIPDRGNPNYNPSLRSRLSISRDTSKNRISLTLTSVTAADTAVYYCARASGTRVATITDYYGMDVWGQGTTVTVSS
chain 2: DIQMTQSPSSLSASVGDRVTITCRASQAITNHLNWYQSKPGKAPKFLISAASTLQNGVPSRFSGSGSGTDYSLTITNLQPDDFATYYCQQSHSNPITFGQGTRLEIK
B9: AG7-3B02 (protein)
chain 1: VQLVESGGVVVQPGGSLRLSCAASGFTFDDCAMHWVRQAPGKGLEWVSLITWDGGSTYYADSVKGRFTISRDNNKNSLYLQMNSLRAEDTALYYCAKDMSSGYYSIFDSWGQGTLVTVSS
chain 2: EIVMTQSPATLSVSPGERATLSCRASQTISGNLAWYQQKPGQAPRLLIYYASARATGIPARFSGSGSGTEFTLTISSLQSEDFALYYCQHYNNWPPQFGPGTKVDIK
B10: K77-2G05 (protein)
chain 1: QVQLQESGPGRVKPSETLSLTCTVSGGSVSSDSFYWSWIRQPPGRGLEWIGYISKSGSTNYTPSLKSRVTVSIETSKNQISLNLSSVTAADTAVYYCARAFRGYCITTDCYIFDYWGQGTLVTVSS
chain 2: DIVMTQSPDSLAVSLGERATINCKSNRSILFSSNNKNYLAWYQQKPGQPPKLLIYWASTRESGVPDRFSGSGSGTDFTLTISRLQAEDVAVYYCQQYYGTPLTFGGGTKVEIK
B11: R95-2C10 (protein)
chain 1: EVQLVESGGVAVKPGGSLRLSCAASGFTFDDYVMHWVRQVPGKGLEWVSLISWDGGSRYYADSVKGRFTISRDNSKNSLYLQMNNLRPEDTALYYCVKDRESGNYYHFYYMDAWGKGTTVTVS
chain 2: QSVLTQPPSVSAAPGQKVTISCSGSSSNIGNNHVSWFQQLPGTAPKLLIYDNDKRPSGIPDRFSGSKSGTSATLGITGLQTGDEADYYCETWDSSLSGGGVVFGGGTRLTVI
B12: antibody 3E05 (protein)
chain 1: VQLVQSGAEVKKPGASVKVSCKASGYTFTTYDIHWVRQAPGQGLEWMGWLNPNSGYTVYAQKFQGRLTMTRNTSIRIAYLELSSLRSEDTAVYYCARDDGYCTSNNCYSRGMDVWGQGTTVTVSS
chain 2: EIVLTQSPGTLSLSPGERATLSCRASQNFSSNYLAWYQQKPGQAPRLLIYGASSRATGIPDRFSGSGSGTDFTLTISRLEPEDFAVYYCHQYGRSFGQGTKVEIK
B13: W85-3F01 (protein)
chain 1: EVQLVESGGDLVQPGRSLRLSCEASGFTFSSYEMSWVRQPPGKGLEWVSYISSSGATFYYADAVKGRFTISRDNAKNSLYLQMNSLRAEDTAVYYCASLITGYNSYWYWVDHLDSWGHGTLVTVSS
chain 2: DIVMTQSPLSLPVTPGEPASISCRSSQSLLHSNGYNYLDWYLQKPGQSPQLLIYLGSIRASGVPDRFNGSGSGTDFTLKIIRVEAEDVGVYYCMQALQTAFTFGPGTKVDIK
B14: R95-1H04 (protein)
chain 1: QVQLQESGPGLVKPSETLSLTCSLSSGYIGTYSWNWIRQAPGKGLEWIGYVSNSGSTKYNPSLQSRVTISVDMSKNQFSLELRSVSAADTALYYCARAHYFGSGNFIYGYFYYGMDVWGQGTMVTVSS
chain 2: SYELTQPPSVSVSPGQTASITCSGDKLGDKYACWYQQKPGQSPLLVIYQDTKRPSGVPERFSGSNSGNTATLTINGTQAMDEADYYCQAWDITTHVAFGGGTKLSVL
B15: 013-10-3F02 (protein)
chain 1: QVQLVESGGGVAQPGRSLRLSCAASGFTFSTYGMHWVRQAPGKGLEWVAVISYDGSKRYYAEILKDRFTISRDNSKNTVYLQMNSLRTEDTAVYFCAKEGRPLIVSGTHFFQFYYGMDVWGQGTTVTVSS
chain 2: DIQMTQSPSSLSASVGDRVTISCRASQSIGTYLNWYQQKPGKAPNLLIYGTSTLKSGVPSRFSGSGSGTDFTLTIGSLQPEDFATYFCQQSFSPPLTFGRGTRLEIK
B16: C1-E04 (protein)
chain 1: VQLQESGPGLVKPSETLSLTCTVSGDSIISSGSYWAWIRQPPGKGLEWIGFVYYSGSTYYSTSLKSRVTISVDTSKNQFSLKLTSVTAADTAVYFCARDRGGEEYYYGMDVWGPGTTVTVSS
chain 2: DIQMTQSPSSLSASVGDRVSITCRASQFIINNLNWYQKKPGKAPWLLIYSASTLQSGVPSRFSGSRSGTDFTLTISSLEPEDFATYYCQQGYSTPHTFGQGTKVEIK
B17: 36.d.02 (protein)
chain 1: QVQLQESGPGLVKPSQTLSLTCIVSGGSISSGDYFWSWIRQPPGKGLEWIAYMYYTGSTYYNPSLKSRVAISVDTSKNHLALKLTSVTAADTAVYYCGRIPRDIVLVPGGSRWAATIDDWGQGILVTVSS
chain 2: EIVMTQSPVSLSLSPGERATLSCRASQSVSSYLAWYQQKPGQAPRLLIYGASNRATDIPARFRGSGSGTDFTLTISSLDPEDFAVYYCQQYTNWPRTFGQGTKVETK
B18: K77-2B11 (protein)
chain 1: LVQFQESGPGLVKPSETLSLTCTVSGGSISSSTYYWGWIRQPPGKGLEWIGSIYYDGSTYYNPSLKSRVTISVDTSKSRFSLTLSSVTAADTAIFYCARVAQWLRPGYFDYWGQGTLVTVSS
chain 2: B10 chain 2 with N26S, R27Q, F31Y, N34I, R83S, L102P, G106Q, V110L
B19: 039-10-5B02 (protein)
chain 1: QVQLQESGPGLVKPPQTLSLTCTVSGGSVSSGTYYWSWIRQPAGKGPEWIGRIYTTGSTDYNPSLKSRVTISIDTSNNRFSLRLNSVTAADTAVYYCARVGPHPTQGVSYFDHWGQGILVTVSS
chain 2: EIVLTQSPVTLSLSPGERATLSCRASQSFSNYLAWYQQKPGQAPRLLIYDASTRATGVPARFSGSGSGTDFTLTISSLEPEDFAVYYCQLRSNWPLFFTFGPGTKVDIK

target: H1 HA stem construct (mini-HA #4900); experiment: mRNA display binding score; higher = more enriched on the antigen; details: antigen blocked with: nothing
Description: (§1)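 A pool of natively paired antibodies, displayed as scFv on mRNA, was selected once on antigen-coated beads and sequenced before and after; two replicates.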

Binder | mRNA display binding score
B1 | inactive: 1.27
B2 | inactive: 0.0802
B3 | inactive: 0.561
B4 | inactive: 1.99
B5 | inactive: -0.408
B6 | inactive: -0.478
B7 | inactive: -0.553
B8 | inactive: -0.671
B9 | inactive: 1.28
B10 | inactive: 0.516
B11 | inactive: -1.31
B12 | inactive: -0.424
B13 | inactive: 0.303
B14 | inactive: 0.568
B15 | inactive: 1.47
B16 | inactive: -0.999
B17 | inactive: 0.033
B18 | inactive: 0.658
B19 | inactive: -0.132

target: H3 HA stem construct (H3ssF); experiment: as above; details: antigen blocked with: nothing
Description: as §1

Binder | mRNA display binding score
B1 | inactive: -0.109
B2 | active: 35.6
B3 | inactive: 0.183
B4 | inactive: 7.88
B5 | inactive: -0.746
B6 | inactive: -0.477
B7 | inactive: -0.644
B8 | inactive: -0.657
B9 | inactive: 1.33
B10 | inactive: -0.212
B11 | inactive: 0.335
B12 | inactive: -0.191
B13 | inactive: 2.01
B14 | inactive: 0.411
B15 | inactive: 0.804
B16 | inactive: -0.511
B17 | inactive: 0.0676
B18 | inactive: 0.473
B19 | inactive: 0.857
